Here are results for 172 sequences from article PMC4242493.

The list shows a part of the results. The list includes weakly bound sequences.

The target of the experiment is MaxL homodimer (UniProt P61244). Put plainly: universal protein-binding microarray (PBM). The note with it: PBS-based mixture, 10 nM His-tagged protein dimer, 2% milk, 200 ng/uL BSA, 50 ng/uL salmon testes DNA, 0.02% TX-100; detection with Alexa 488 anti-His …; high values mean tight binding; most listed sequences are background and not binding sites; double strand, one strand shown.
Sequence of UniProt P61244 (P61244 whole entry): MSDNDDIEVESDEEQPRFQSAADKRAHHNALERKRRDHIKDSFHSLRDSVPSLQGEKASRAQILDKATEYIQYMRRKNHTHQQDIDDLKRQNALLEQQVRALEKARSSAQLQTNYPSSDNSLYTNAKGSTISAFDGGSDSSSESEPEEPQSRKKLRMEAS
As to CAGTCCTA, the binding signal (normalized occupancy) worked out at 0.0753.

Turning to GAGACCGC, the binding signal (normalized occupancy) turned out to be 0.0679.

For GTAGTTCA, the binding signal (normalized occupancy) was 0.0779.

For AAGTGGGG, the binding signal (normalized occupancy) was found to be 0.0764.

Consider CTCCAAAG, for which the binding signal (normalized occupancy) was found to be 0.0693.

Take CGAGAGGC: the binding signal (normalized occupancy) is 0.0708.

Consider GATAGTCA, for which the binding signal (normalized occupancy) was found to be 0.0795.

CCTAAGCG: the binding signal (normalized occupancy) amounted to 0.0698.

For AAACGCGG, the binding signal (normalized occupancy) is 0.0761.

GCAGGGAC: the binding signal (normalized occupancy) was 0.0705.

Turning to TGTGTAAA, the binding signal (normalized occupancy) came to 0.0789.

Take CAGCAGTC: the binding signal (normalized occupancy) turned out to be 0.0698.

In the case of CAGAATTA, the binding signal (normalized occupancy) turned out to be 0.0699.

On to AGGCAGTG, for which the binding signal (normalized occupancy) turned out to be 0.0739.

On to AATCGTCG, for which the binding signal (normalized occupancy) worked out at 0.0717.

On to ACTATGTA, for which the binding signal (normalized occupancy) was 0.0762.

For CGAGTTCC, the binding signal (normalized occupancy) was 0.0757.

On to GACCTCAC, for which the binding signal (normalized occupancy) was determined as 0.0775.

On to AGAGATCG, for which the binding signal (normalized occupancy) amounted to 0.0698.

In the case of GTTATTAA, the binding signal (normalized occupancy) was determined as 0.0795.

On to CCATCGCA, for which the binding signal (normalized occupancy) was 0.0764.

Take GACATCGC: the binding signal (normalized occupancy) came to 0.078.

For GTTTCGTA, the binding signal (normalized occupancy) stood at 0.0726.

As for CTATGGTC, the binding signal (normalized occupancy) worked out at 0.0719.

For the sequence ACTACATA, the binding signal (normalized occupancy) turned out to be 0.0838.

Consider ACCGAGAA, for which the binding signal (normalized occupancy) was 0.0735.

AGACGGCA: the binding signal (normalized occupancy) worked out at 0.0736.

For CATCTTGG, the binding signal (normalized occupancy) came to 0.0746.

Consider AGAAAACA, for which the binding signal (normalized occupancy) was 0.0733.

As to GAGAATCC, the binding signal (normalized occupancy) is 0.0727.

As to CCGAGGAG, the binding signal (normalized occupancy) was 0.0685.

Take ATAATTAA: the binding signal (normalized occupancy) turned out to be 0.081.

On to CTATTAGC, for which the binding signal (normalized occupancy) was 0.074.

In the case of GCATAGAC, the binding signal (normalized occupancy) came out at 0.0736.

Turning to CCATTGCC, the binding signal (normalized occupancy) came out at 0.0742.

As to CCGCTCCG, the binding signal (normalized occupancy) worked out at 0.0636.

For the sequence CTTACGAC, the binding signal (normalized occupancy) was determined as 0.0712.

As to AAGATTTG, the binding signal (normalized occupancy) worked out at 0.0743.

Consider AGGTAGGG, for which the binding signal (normalized occupancy) was 0.0763.

CCTGTCCA: the binding signal (normalized occupancy) was 0.0768.

Consider CTATCATC, for which the binding signal (normalized occupancy) stood at 0.0805.

Turning to TCGACCGA, the binding signal (normalized occupancy) was 0.0661.

Turning to ATAGTATC, the binding signal (normalized occupancy) worked out at 0.0757.

As for CCCCCGTA, the binding signal (normalized occupancy) turned out to be 0.0776.

Turning to CGGACTGC, the binding signal (normalized occupancy) was found to be 0.0673.

Consider CTACGTAA, for which the binding signal (normalized occupancy) is 0.0737.

As for GAACTTTA, the binding signal (normalized occupancy) was found to be 0.0689.

CCACAGTC: the binding signal (normalized occupancy) is 0.071.

For the sequence CTTTCCTC, the binding signal (normalized occupancy) was determined as 0.0743.

For TGTGACAA, the binding signal (normalized occupancy) was found to be 0.0875.

As to CCGAGATA, the binding signal (normalized occupancy) came out at 0.0699.

Regarding GCAAGCCA, the binding signal (normalized occupancy) is 0.0722.

Take AGTTGAGA: the binding signal (normalized occupancy) worked out at 0.0744.

In the case of AAGGCGCT, the binding signal (normalized occupancy) worked out at 0.0679.

With ATTACATG, the binding signal (normalized occupancy) worked out at 0.0934.

As for GAGTAGCA, the binding signal (normalized occupancy) is 0.075.

With GTTCATTA, the binding signal (normalized occupancy) stood at 0.079.

In the case of CCTTAGTA, the binding signal (normalized occupancy) was determined as 0.0739.

In the case of CGATCCTA, the binding signal (normalized occupancy) is 0.0792.

Regarding AGAATGCC, the binding signal (normalized occupancy) was 0.075.

With TATCGGCA, the binding signal (normalized occupancy) came out at 0.0743.

Regarding AAGATAGG, the binding signal (normalized occupancy) was found to be 0.0768.

With GAGGCTAA, the binding signal (normalized occupancy) was found to be 0.0706.

Turning to AGCGTCGA, the binding signal (normalized occupancy) stood at 0.0739.

As for CTAACAAA, the binding signal (normalized occupancy) amounted to 0.0751.

On to CCACACAC, for which the binding signal (normalized occupancy) came out at 0.0837.

ACGCACCC: the binding signal (normalized occupancy) was found to be 0.0848.

Consider CTATCAGA, for which the binding signal (normalized occupancy) amounted to 0.0804.

For ATGACCAA, the binding signal (normalized occupancy) was 0.0742.

For the sequence CCCGAACG, the binding signal (normalized occupancy) was found to be 0.0704.

For GAACGATC, the binding signal (normalized occupancy) worked out at 0.0784.

GTCACAAA: the binding signal (normalized occupancy) turned out to be 0.0732.

ATCCGGAA: the binding signal (normalized occupancy) came out at 0.0707.

Consider ACACTCGT, for which the binding signal (normalized occupancy) was 0.0776.

As for GTACTATA, the binding signal (normalized occupancy) was 0.0835.

Take AGACAACA: the binding signal (normalized occupancy) came to 0.0786.

Regarding CCAACACC, the binding signal (normalized occupancy) was found to be 0.0724.

In the case of AGGCATCA, the binding signal (normalized occupancy) is 0.0717.

For the sequence ACGAAACG, the binding signal (normalized occupancy) was determined as 0.0766.

As to ACAGTACC, the binding signal (normalized occupancy) came out at 0.075.

For ACCTTGCG, the binding signal (normalized occupancy) came out at 0.0745.

Consider AAGGAGGC, for which the binding signal (normalized occupancy) was determined as 0.0691.

Consider AGGTTATG, for which the binding signal (normalized occupancy) was 0.0792.

Regarding GCATCTCC, the binding signal (normalized occupancy) was 0.0715.

AGAACGTG: the binding signal (normalized occupancy) came out at 0.1.

GCGGTGCA: the binding signal (normalized occupancy) is 0.0708.

With AGTCGGAA, the binding signal (normalized occupancy) turned out to be 0.0708.

Turning to AGTTGCCA, the binding signal (normalized occupancy) was 0.0686.

As to GGAAGTAA, the binding signal (normalized occupancy) turned out to be 0.0746.

On to AGAATGAC, for which the binding signal (normalized occupancy) was 0.0746.

Consider GACCTTGC, for which the binding signal (normalized occupancy) is 0.0719.

As for GACAGCGA, the binding signal (normalized occupancy) was 0.0666.

For ATCGTAGG, the binding signal (normalized occupancy) was found to be 0.0753.

Consider AGACCACG, for which the binding signal (normalized occupancy) was 0.0888.

As for GACTAGCA, the binding signal (normalized occupancy) is 0.0719.

AGACCCGA: the binding signal (normalized occupancy) turned out to be 0.0742.

CAGGCAGG: the binding signal (normalized occupancy) stood at 0.076.

Regarding ATCCCCTA, the binding signal (normalized occupancy) came out at 0.0832.

On to ATTACCAC, for which the binding signal (normalized occupancy) was 0.0824.

Take AGTCGGAC: the binding signal (normalized occupancy) was 0.0684.

For CCTGCTCC, the binding signal (normalized occupancy) was 0.0763.

Take ACATGAGC: the binding signal (normalized occupancy) was found to be 0.0906.

As for CGTTTTCC, the binding signal (normalized occupancy) stood at 0.0776.

Regarding TAACCTCA, the binding signal (normalized occupancy) was determined as 0.0782.

For the sequence CCAAAGTA, the binding signal (normalized occupancy) was 0.0715.

For the sequence ACTTTAAC, the binding signal (normalized occupancy) was found to be 0.0746.

Turning to ATATAGGC, the binding signal (normalized occupancy) was 0.0804.

As to CTACGATC, the binding signal (normalized occupancy) was found to be 0.0733.

Turning to GCGTTATA, the binding signal (normalized occupancy) amounted to 0.0833.

Consider ACAATAGC, for which the binding signal (normalized occupancy) was 0.0757.

Consider ATCCGCCC, for which the binding signal (normalized occupancy) is 0.0753.

Regarding ACGTGACT, the binding signal (normalized occupancy) worked out at 0.0933.

As to CTATCGCA, the binding signal (normalized occupancy) amounted to 0.0749.

With ACAGGCTA, the binding signal (normalized occupancy) was 0.0747.

Consider ATGATAGG, for which the binding signal (normalized occupancy) was 0.0776.

Turning to CTGAAATC, the binding signal (normalized occupancy) was 0.0754.

For ATCGATAA, the binding signal (normalized occupancy) was determined as 0.0838.

In the case of ACACCATC, the binding signal (normalized occupancy) is 0.0824.

For ATGCGCTA, the binding signal (normalized occupancy) was determined as 0.0862.

Turning to CGAACCAC, the binding signal (normalized occupancy) is 0.0771.

As for AGCTAGCG, the binding signal (normalized occupancy) is 0.0689.

For CAGCAACG, the binding signal (normalized occupancy) was 0.0786.

AAAAGAGC: the binding signal (normalized occupancy) was 0.0732.

Take GGATAGCA: the binding signal (normalized occupancy) turned out to be 0.0805.

On to AAACCTCA, for which the binding signal (normalized occupancy) came out at 0.0787.

Take CATTCTTC: the binding signal (normalized occupancy) came to 0.0745.

As for AAAGTCAT, the binding signal (normalized occupancy) was 0.0813.

For the sequence GTGCAGCA, the binding signal (normalized occupancy) was 0.0808.

As to ACTCGGAA, the binding signal (normalized occupancy) came to 0.0704.

Take ACACCTCA: the binding signal (normalized occupancy) was found to be 0.0821.

Turning to CATGCCCC, the binding signal (normalized occupancy) is 0.0965.

Regarding AAAAAATA, the binding signal (normalized occupancy) was determined as 0.0762.

For GGTACGGA, the binding signal (normalized occupancy) is 0.0731.

With AAAAAGTA, the binding signal (normalized occupancy) stood at 0.0775.

As to GGTTGTAA, the binding signal (normalized occupancy) came out at 0.0812.

Consider AAGAGTGG, for which the binding signal (normalized occupancy) worked out at 0.0772.

As for TTATACAA, the binding signal (normalized occupancy) was 0.0701.

For GGTACCTA, the binding signal (normalized occupancy) was 0.0718.

As for AGGGCCTC, the binding signal (normalized occupancy) amounted to 0.0701.

In the case of GAACTTAA, the binding signal (normalized occupancy) was 0.0697.

As to AACAACTA, the binding signal (normalized occupancy) was found to be 0.073.

For TAGTTGAA, the binding signal (normalized occupancy) is 0.071.

Take AGCTAGAC: the binding signal (normalized occupancy) stood at 0.0672.

Consider AAGTCGTC, for which the binding signal (normalized occupancy) amounted to 0.0749.

For the sequence AACTACTG, the binding signal (normalized occupancy) was determined as 0.0716.

For the sequence GCGTCGAA, the binding signal (normalized occupancy) is 0.0725.

For the sequence ATTCAATG, the binding signal (normalized occupancy) is 0.0799.

For the sequence ATGCAATA, the binding signal (normalized occupancy) was found to be 0.0887.

Regarding AGTGCCTA, the binding signal (normalized occupancy) stood at 0.0681.

On to GTAGCAAA, for which the binding signal (normalized occupancy) was determined as 0.0754.

Take AGTCAATC: the binding signal (normalized occupancy) was 0.0756.

As for AGATAACT, the binding signal (normalized occupancy) stood at 0.077.

As for GCTGCAAC, the binding signal (normalized occupancy) was determined as 0.0774.

On to AAATCCGA, for which the binding signal (normalized occupancy) worked out at 0.0705.

In the case of CAAAATTG, the binding signal (normalized occupancy) is 0.0748.

On to CGACCAAG, for which the binding signal (normalized occupancy) turned out to be 0.0687.

Regarding ATCACGGA, the binding signal (normalized occupancy) was found to be 0.0707.

For the sequence ACCGGGGC, the binding signal (normalized occupancy) worked out at 0.0689.

As for ATGCCAGG, the binding signal (normalized occupancy) worked out at 0.0791.

Consider ACCTCCAG, for which the binding signal (normalized occupancy) stood at 0.0721.

Turning to GCTCTCCA, the binding signal (normalized occupancy) stood at 0.0729.

For the sequence CTTCGGTA, the binding signal (normalized occupancy) amounted to 0.0698.

Turning to ATTGTCCA, the binding signal (normalized occupancy) was 0.0749.

As for GTTTAAGA, the binding signal (normalized occupancy) was 0.0713.

As for ATCACCTC, the binding signal (normalized occupancy) came out at 0.0833.

As to CCCGGGGA, the binding signal (normalized occupancy) was 0.0719.

In the case of AAGCTAGC, the binding signal (normalized occupancy) was determined as 0.0689.

Regarding CGATAGCG, the binding signal (normalized occupancy) was found to be 0.0747.

Take ATCCCCCG: the binding signal (normalized occupancy) turned out to be 0.0843.

As to GCCGAACC, the binding signal (normalized occupancy) worked out at 0.0731.

As to ACATAGCA, the binding signal (normalized occupancy) was 0.0807.

On to ATACTAAT, for which the binding signal (normalized occupancy) stood at 0.0799.
